System: RAW 264.7 (Mouse leukaemic monocyte macrophage cell line) cells
Assay: Phagocytosis assay (Fluorescein-labeled Escherichia coli, flow cytometry)
Settings: 10 micrograms per ml; RAW 264.7 cells; 30 min preincubation, 60 min ingestion

Substance: Ala-Cys-Asn-Thr-Ala-Thr-Cys-Val-Thr-His-Arg-Leu-Ala-Gly-Leu-Leu-Ser-Arg-Ser-Gly-Gly-Met-Val-Lys-Ser-Asn-Phe-Val-Pro-Thr-Asn-Val-Gly-Ser-Lys-Ala-Phe-NH2 [peptide 1]
- induction of phagocytosis as compared to the control experiment: did not induce phagocytosis
